Reference: PubChem BioAssay AID493208 (National Center for Advancing Translational Sciences (NCATS), 2011)
The whole screen tested about 44,000 compounds, of which about 340 (0.77%) were called active. Not shown: some 5% with an inconclusive outcome. The call rests on the fitted dose curve; in most records, active means well fitted inhibition curve with a large enough effect; inconclusive means small, poorly fitted or top-dose-only effect; inactive means flat fitted curve, though single readings scatter. The list shows a part of the results.

Experiment: Acumen qHTS Assay for Inhibitors of the mTORC1 Signaling Pathway in MEF (Tsc2-/-, p53-/-) Cells: Sytravon;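 further: plate controls were DMSO for no effect and rapamycin for full effect; nearly all actives have a fitted effect of over 50% in size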
Settings: phospho-rpS6 immunofluorescence/PI, 24 h; series mostly up to 38.3 µM; activity change, negative = inhibition: at the top concentration
Summary of the method: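 Plate MEFs (Tsc2-/-, p53-/-, empty vector) in DMEM/10% FBS; after 24 h add compound, incubate 24 h at 37 degree Celsius; fix in PFA/TX-100, block, stain phospho-rpS6 and 10 uM PI; scan at 488 nm; report % positive cells.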

Activity change, negative = inhibition, inactive:
COCC(C)NC(=O)c1cnn2c(C(F)F)cc(-c3ccccc3)nc12 (stereo not drawn) 4.68%
O=C(NCCCN1CCN(c2ccccc2F)CC1)c1cc2c(Cl)nc3ccccc3c2s1 0.553%
Cc1cc(C)c(NC(=O)CN2c3ccccc3S(=O)(=O)c3ccccc32)c(C)c1 -19.6%
Cc1nnc(SCc2ccccc2Cl)c2cc3sccc3n12 2.61%
O=C(Nc1sc2c(c1C(=O)Nc1ccc(Cl)cc1)CCCC2)c1cccs1 21.4%
CCCCCOc1ccc(NC(=O)Cc2csc(C)n2)cc1 -25.5%
Cc1ccc(C(=O)Nc2ccccc2C(=O)O)cc1S(=O)(=O)N1CCCCCC1 6.31%
CC(=O)c1ccc(NC(=O)c2cc(-c3ccc4c(c3)OCO4)on2)cc1 -2.78%
Cc1ccc(CN2COc3cc(C)c4c(oc(=O)c5ccccc54)c3C2)cc1 -2.75%
COc1cc(OC)c(NC(=O)C(NS(=O)(=O)c2cccc3nsnc23)c2ccccc2)cc1Cl (stereo not drawn) 0.192%
CCOc1cc(C2NC(=O)c3c(sc4c3CCN(C)C4)N2)ccc1OC(=O)c1ccccc1Cl (stereo not drawn) 2.88%
COc1ccc(-c2[nH]c(-c3ccccc3)nc2SCC(=O)Nc2ccc3c(c2)OCCO3)cc1 -6.98%
CCOC(=O)c1cnc2c(ccc3ccccc32)c1Nc1ccccc1OC 4.28%
Cc1ccc(S(=O)(=O)CCC(=O)Nc2ccc(Br)cc2C)cc1 2.02%
O=C(NCCc1csc(-c2ccc(F)cc2)n1)c1cccs1 3.89%
O=C(NC1CC(=O)N(c2ccc3c(c2)OCCO3)C1)c1c(F)cccc1Cl (stereo not drawn) -0.979%
COc1ccc(NC(=O)Cn2c(=O)cc(C)c3c(C)nn(-c4cccc(Cl)c4C)c32)cc1OC -0.267%
COc1ccc(-c2noc(CSc3nnc(Cc4ccccc4)n3-c3ccccc3)n2)cc1OC -5.25%
CCOC(=O)c1cc(-c2ccccc2)n(CC(=O)NC2CCC(C)CC2)c1C (stereo not drawn) -2.24%
Cc1ccc2c(c1)c(=O)c(C(=O)c1ccc3c(c1)OCO3)cn2Cc1cccc(F)c1 -6.67%
COCCNc1oc(-c2ccc(COc3ccc(OC)cc3)o2)nc1C#N -12.4%
Cc1ccc(NC(=O)CSc2nc3ccccc3c3nc(CCc4c(C)n[nH]c4C)nn23)c(C)c1 -6.88%
Cc1ccc(-c2nn(-c3ccc(F)cc3F)c3c2cnc2c(F)cccc23)cc1 2.67%
Cc1ccccc1C(=O)Nc1nc2nc(C)c(C)c(=O)n2[nH]1 -0.204%
CCCc1nn2c(=O)cc(COC(=O)c3ccc(NC(=O)CCc4ccccc4)cc3)nc2s1 27.4%
Cc1nc2c(C(=O)O)cnn2c(C)c1Cc1ccccc1 4.58%
Cc1ccc2nc(N3CCN(c4cccc(Cl)c4)CC3)c3nnnn3c2c1 -2.78%
Cc1ccc(C(=O)CSc2ncc3c(n2)-c2ccccc2N(Cc2ccc(Cl)cc2)S3(=O)=O)cc1 2.85%
COc1cccc(NC(=O)c2sc3nc4n(c(=O)c3c2C)CCC4)c1 -3.61%
CCOC(=O)c1cccc(NC(=O)c2cc(S(=O)(=O)N3CCCC(C)C3)cn2C)c1 (stereo not drawn) 0%
CC1=C(C(N)=O)C(c2ccc(C)cc2)n2nc(SCc3ccccc3F)nc2N1 (stereo not drawn) 1.78%
CC(=O)Nc1ccccc1-c1nc2ccccc2n(CC(=O)c2ccc(Br)cc2)c1=O 0%
COc1cc(C2C(=O)N(C3CCCCC3)CC(=O)N2CCC2=CCCCC2)ccc1OC(C)C (stereo not drawn) 0%
COc1cccc(CNC(=O)CSc2nnc(C)c3c(C)n(-c4ccccc4)nc23)c1OC -13.9%
CCOC(=O)C1CCCN(C(=O)Cn2ncc3c(C)n(Cc4ccccc4F)c(C)c3c2=O)C1 (stereo not drawn) -7.49%
Cc1cc(C)cc(NC2=C(c3ccccc3)C(=O)c3ccccc32)c1 -0.0983%
COC(=O)CNC(c1ccccc1)c1cc(Br)ccc1NC(=O)c1ccccc1 (stereo not drawn) 15.2%
COc1cccc(-n2cc(C(=O)Nc3cc(OC)c(OC)c(OC)c3)c3ccccc3c2=O)c1 -17%
CCc1cccc(C)c1NC(=O)C1CCN(c2nn3c(=O)cc(C)nc3s2)CC1 -0.954%
COc1ccc(-c2cc(C(F)(F)F)nc(SCC(=O)N3CCCCC3C)n2)cc1OC (stereo not drawn) -1.68%
Cc1onc(-c2c(F)cccc2Cl)c1C(=O)Nc1ccc(OC(C)C)cc1 -13%
Cc1ccc2oc(=O)c3cc(C(=O)Nc4ccccc4C(N)=O)sc3c2c1 0.571%
COc1ccc(CCNC(=O)c2cc3c(s2)-c2ccccc2OC3)cc1OC -0.204%
Fc1ccc(N2CCN(c3ncnc4c3nc3n4CCCCC3)CC2)cc1 3.98%
Cc1cccc(NC(=O)Nc2ccc(Br)cc2)n1 5.62%
O=C1CCCc2cc(S(=O)(=O)NCC3CCC(C(=O)NCc4ccccc4Cl)CC3)ccc2N1 (stereo not drawn) -14.1%
CCOCCCn1c(=N)c(C(=O)NCc2cccnc2)cc2c(=O)n3cc(C)ccc3nc21 1.7%
CCOC(=O)c1cnc2c(ccc3ccccc32)c1Nc1ccc(OCC)cc1 6.29%
COc1ccc(S(=O)(=O)c2c(O)c3ccc(C(=O)NCc4ccccc4)cc3[nH]c2=O)cc1 3.41%
Cc1ccc(-n2nc3c(N4CCC(C(=O)NC(C)c5ccccc5)CC4)nnc(C)c3c2C)cc1 (stereo not drawn) -1.33%
CCOc1ccc(Nc2cc(C)nc3nc(Cc4ccc(Cl)cc4)nn23)cc1 0.0534%
COc1ccccc1N1CCN(C(=O)c2c(C)oc3ncn(CC(C)C)c(=O)c23)CC1 -5.77%
O=C(Cn1ccc2ccccc2c1=O)NCCC(=O)Nc1ccc(F)cc1F -11.9%
CCN(CC)Cc1c(NC(=O)c2ccc(OC)cc2)sc2c1CCCC2 -3.44%
COc1ccc(CCNC(=O)Cn2c(=O)c3cccn3c3ccc(F)cc32)c(OC)c1 -18.3%
CC(=O)Nc1ccc(Nc2nc3c(S(=O)(=O)c4cccc(Cl)c4)nnn3c3ccsc23)cc1 0.426%
COc1ccc(-c2cc(C(=O)Oc3cccc(C)c3)c3cc(C)ccc3n2)cc1 0.371%
COc1ccc(CCNC(=O)c2cnc3sc(N4CCCCC4)nn3c2=O)cc1OC -1.37%
Cc1oc2ncn(CC(C)C)c(=O)c2c1C(=O)NCCCN1CCC(C)CC1 -5.2%
O=C(COc1ccccc1F)OCc1cc(=O)n2nc(C3CC3)sc2n1 -8.86%
Cc1cc(C)cc(-n2c(C)nc3cc(C(=O)NCc4ccccc4Cl)ccc32)c1 1.51%
COc1cccc(C(=O)Nc2ccc(-n3nncc3-c3ccccc3)cc2)c1 18.1%
Cc1ccc(NC(=O)CN2C(=O)CCc3cc(S(=O)(=O)N4CCCCC4)ccc32)cc1C -9.24%
Cc1ccc(NC(=O)c2cc3c(=O)n(Cc4ccco4)ccc3nc2C)cc1C -5.66%
Cc1ccc(CN(C(=O)COc2ccc(Cl)cc2C)C2CCS(=O)(=O)C2)o1 (stereo not drawn) -1.94%
CCOC(=O)c1c(NC(=O)c2cc(CC(C)C)on2)sc(C(C)=O)c1C -0.217%
CCCn1c(=O)c2c(nc3n2CCN3c2ccc(C)cc2)n(C)c1=O 5.93%
CSc1ccc(C2c3c(oc4cc(C)cc(C)c4c3=O)C(=O)N2CCO)cc1 (stereo not drawn) 0.0534%
Cc1nc2sc(C(=O)N(C)c3ccccc3)c(NC(=O)c3ccccc3Cl)c2c(C)c1C 3.28%
CCOc1ccc(NC(=O)N(Cc2c[nH]c3ccccc23)C2CCCCCC2)cc1 -9.05%
Cc1ccc(NC(=O)c2c(C)oc3ccc(O)c(CN4CCOCC4)c23)c(C)c1 5.23%
COc1ccc(C2C(C(=O)Nc3ccccc3OC)=C(C)Nc3c(C(=O)Nc4ccccc4)cnn32)c(OC)c1 (stereo not drawn) 0%
Cc1ccc(OCC(=O)N(Cc2ccco2)Cc2ccco2)cc1C 2.72%
CC(C)CCNC(=O)CCn1c(=O)c2cccn2c2cccnc21 3.03%
COc1cn(CC(=O)Nc2ccccc2)c(CN2CCCCC2)cc1=O 0.489%
CCOc1ccccc1NC(=O)CSc1ncc(S(=O)(=O)c2ccc(C)c(C)c2)c(N)n1 -6.77%
O=C(CSc1nnc(-c2ccccc2F)o1)Nc1ccccc1Cl -3.47%
CCSc1nnc2c(n1)OC(c1ccc(C)s1)Nc1ccccc1-2 (stereo not drawn) 3.57%
COc1ccc(CCNC(=O)Cn2cc(S(=O)(=O)Cc3ccccc3Cl)c3ccccc32)cc1OC -6.04%
CCOc1ccc(NC(=O)Cn2nnc(C(=O)NCCc3ccccc3)c2N)cc1 -3.9%
COc1cc(NC(=O)N2CCC3(CC2)Nc2ccccc2-n2cccc23)cc(OC)c1OC -15.8%
COc1ccc(-c2cc(OC(=O)c3cccc(Cl)c3)c3c(C)oc(C)c3c(=O)c2)cc1 2.61%
CCc1nn(CC(=O)Nc2c(C)cccc2C)c(=O)c2cc3sccc3n12 -0.491%
O=C(CSc1nc2c([nH]c3ccccc32)c(=O)n1-c1ccccc1)Nc1ccc(Cl)c(Cl)c1 -5.64%
COc1ccc(-c2noc(-c3ccc(NCC4CCCO4)c([N+](=O)[O-])c3)n2)cc1 (stereo not drawn) 3.56%
CNC(=O)c1c(NC(=O)Cc2coc3ccc(C)cc23)sc2c1CCCC2 -19.6%
COc1ccccc1NC(=O)CSc1oc(-c2ccccc2)nc1S(=O)(=O)c1ccc(C)cc1 4.75%
CCOC(=O)c1noc2ncn(CC(=O)Nc3cccc(Cl)c3)c(=O)c12 -4.39%
O=C(CSc1c2c(nc3cc(Cl)ccc13)CCCC2)N1CCN(c2ccccc2F)CC1 -8.63%
O=C(COc1ccc2ccccc2c1)NC1CC(=O)N(c2ccccc2)C1 (stereo not drawn) 0.303%
Cc1ccc2nc(-c3cccnc3)c(Nc3ccc(C(C)C)cc3)n2c1 -0.939%
Cc1nc(-c2ccc(S(=O)(=O)N3CCN(c4cc(Cl)ccc4C)CC3)cc2)co1 0.534%
O=C(c1ccc(F)cc1)n1nc(-c2cccnc2)nc1NCc1ccc(F)cc1 -1.55%
O=C(NCCc1ccc(Cl)cc1)C1COc2ccccc2C1 (stereo not drawn) -4.64%
Cc1cn2c(=O)c(S(=O)(=O)N3CCN(c4cc(Cl)ccc4C)CC3)c(C)nc2s1 1.9%
O=C(Nc1cccc(-c2nc3cccnc3s2)c1)c1cccc(Br)c1 -1.33%
CCOC(=O)c1ccc(NC(=O)c2cn(-c3ccccc3)nc2-c2ccc(OC)c(OC)c2)cc1 9.27%
N#Cc1ccccc1NC(=O)C(=O)NCCc1csc(-c2ccc(F)cc2)n1 -1.01%
